# Results published in PubChem BioAssay AID1240 (Sanford-Burnham Center for Chemical Genomics, 2008).
# The whole screen tested about 50,000 compounds, of which about 800 (1.6%) showed an effect of 50% or more. This is one part of the list.
# Target: Bcl-2-like protein 10 (Homo sapiens) (UniProt Q9HD36)
# Experiment: Phenotype converters, Bcl-B/TR3 peptide binding displacement, primary biochemical FP (AID 1240);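 further: 0% = Bcl-B with tracer peptide and DMSO and 100% = tracer peptide lacking Bcl-B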
# Conditions: GST-Bcl-B / FITC-TR3 peptide fluorescence polarization; stronger effect = higher value; compound at 3.75 mg/L
# Sequence of UniProt Q9HD36 (Q9HD36 whole entry, looked up): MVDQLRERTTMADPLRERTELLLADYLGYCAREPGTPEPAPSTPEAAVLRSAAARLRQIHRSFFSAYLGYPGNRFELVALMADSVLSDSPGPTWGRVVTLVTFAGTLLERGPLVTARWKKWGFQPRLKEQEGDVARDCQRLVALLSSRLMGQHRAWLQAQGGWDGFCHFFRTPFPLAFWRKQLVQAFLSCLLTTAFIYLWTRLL
row,Structure (SMILES),displacement
1,Cc1ccc(NCCC(=O)c2cccs2)cc1C,-16.2%
2,COC(=O)C1=C(N)Oc2n[nH]c(C)c2C1c1ccc(Br)cc1 (stereo not given),-3.6%
3,O=C(c1sc2ccccc2c1Cl)N1CCN(Cc2ccccc2)CC1,2.6%
4,O=C(O)c1ccc(Cl)c(-c2ccc(/C=N\Nc3ccc([N+](=O)[O-])cn3)o2)c1,-25.7%
5,CCOC(=O)Nc1ccc2c(c1)N(C(=O)NC)c1ccccc1CC2,-2.3%
6,C=C(C)CSc1nc2sc3c(c2c(=O)n1CC(=C)C)CC(C)(C)OC3,-10.4%
7,CCC(=O)NNc1nc2c(c(=O)n1C1CCOC(C)(C)C1)C1(CCCCC1)Cc1ccccc1-2 (stereo not given),-15.6%
8,CC(C)Oc1nnc(-c2ccccc2)c2ccccc12,-2.1%
9,Cc1sc(NC(=O)c2ccccc2)nc1-c1ccccc1,2%
10,CCCP(=O)(CCC)CCP(=O)(c1ccccc1)c1ccccc1,0.6%
11,CC(C)CNc1ncnc2ccc(Br)cc12,5.6%
12,Cc1cccc(NC(=O)CC2S/C(=N\N=C3/CCCc4ccccc43)NC2=O)c1C (stereo not given),11.9%
13,CS(=O)(=O)N1CCN(c2ccc([N+](=O)[O-])c(NC3CC3)c2)CC1,8.3%
14,Cc1ccc(OCCCc2c(C)n[nH]c2C)c(C)c1,9%
15,CC1=NN(c2ccccc2)C(=O)C1C(c1ccccc1O)c1c(C)[nH]n(-c2ccccc2)c1=O (stereo not given),-8.8%
16,O=c1nc(-c2ccccc2Cl)c2cc(Br)ccc2[nH]1,0.3%
17,O=C(NCc1cccnc1)c1ccc(-c2cc(Cl)ccc2Cl)o1,-4.7%
18,CCOc1ccc(/C=C\C(C)=N\O)cc1,5.9%
19,COC(=O)NC(NC(=O)OC)c1ccc(OC)cc1,-4.5%
20,O=C(NCCN1CCOCC1)c1cnn2c(C(F)(F)F)cc(-c3ccc(Br)cc3)nc12,-1.9%
21,CCOC(=O)CNS(=O)(=O)CCN1C(=O)c2ccccc2C1=O,-5.7%
22,CCOC(=O)N/N=C(\C)c1ccccn1,3.5%

row,Structure (SMILES),displacement
1,CCOC(=O)C(CCCOc1c(C)cc(Cl)cc1C)C(=O)OCC,-5.7%
2,CC1=NN(c2ccccc2)C(=O)/C1=C\C=C\c1cccc([N+](=O)[O-])c1,8.3%
3,CCc1ccc(NC(=O)C2CC(=O)N(c3ccc(Br)cc3)C2)cc1 (stereo not given),12.9%
4,OC(COc1cccc(OCC(O)CN2CCCCC2)c1)CN1CCCCC1 (stereo not given),-9.2%
5,O=C(NCc1ccc2c(c1)OCO2)C(=O)Nc1ccccc1F,-3.1%
6,COc1cc(/C=C2/C(=O)NN(c3ccc(C)c(C)c3)C2=O)ccc1O,-1.1%
7,COc1cc(CN2CCN(S(=O)(=O)c3ccc(C)cc3)CC2)cc(OC)c1O,6.8%
8,O=C(NC(c1ccccc1)c1ccc2cccnc2c1O)c1ccccc1 (stereo not given),0.9%
9,Cc1ccc(Sc2ccc(/C=N/n3cnnc3)o2)cc1,-8.1%
10,Cc1no[n+]([O-])c1COc1ccc(C=C2C(=O)NC(=O)NC2=O)cc1,2.5%
11,COc1ccc(CC(=O)Nc2cc(C(=O)O)cc(C(=O)O)c2)cc1OC,11.6%
12,Cc1cc(NC(=O)COc2ccccc2Cl)ccc1NC(=O)c1ccccc1,-6.5%
13,Clc1cccc(N=Cc2ccc(OC3CSC3)cc2)c1,3.9%
14,Cc1cc(C(=O)Nc2ccc(S(=O)(=O)Nc3nccs3)cc2)ccc1[N+](=O)[O-],5.6%
15,CN(C)CCN1C(=O)C(=O)/C(=C(/O)c2ccccc2)C1c1ccc(Cl)cc1 (stereo not given),-15.6%
16,CC(C)NC(=O)C(=O)NCc1ccccn1,-0.4%
17,CC(=O)NNc1nc2ccccc2s1,-21.4%
18,CCOc1ccc(N(CC(=O)N2CCCCC2)S(C)(=O)=O)cc1,2.2%
19,Cc1nc2ccc(NC(=S)NCCCO)cc2nc1C,9.5%
20,Cn1c(=O)c(N2CCCCC2)c2c3c(cccc31)C(=O)c1ccccc1-2,147%
21,C=C(C)Cn1c(SCC(N)=O)nc2sc3c(c2c1=O)CCC3,-3.2%
22,O=C(c1ccc(Cl)c([N+](=O)[O-])c1)N1CCC(Cc2ccccc2)CC1,8.7%

row,Structure (SMILES),displacement
1,CC(=O)Oc1cccc(N2C(=O)c3ccc(-c4nc5ccccc5c(=O)o4)cc3C2=O)c1,-7.9%
2,CCn1ccnc1C(O)c1ccc(OC)c(OC)c1 (stereo not given),-7.8%
3,COc1cccc(OCCOc2cccc(/C=C3/SC(=S)N(Cc4ccccc4)C3=O)c2)c1,-3.3%
4,Cc1sc2nc(-c3ccc(Br)cc3)[nH]c(=O)c2c1C,-3.4%
5,COc1ccc(O)c(CN2CCN(Cc3ccccc3OC)CC2)c1,11.2%
6,COc1ccc(Cl)cc1NC(=O)c1cc(Cl)ccc1OC,4.7%
7,CCOc1ccccc1C1CC(=O)NC(SC)=C1C#N (stereo not given),-5.9%
8,COC(=O)c1ccccc1NC(=O)CSc1nc2ccc(N3C(=O)c4ccccc4C3=O)cc2s1,3.2%
9,Cc1cccc(OCC(=O)O/N=C(\N)c2ccc([N+](=O)[O-])cc2)c1,13.5%
10,Cc1nc2ccc(NC(=S)Nc3cccc([N+](=O)[O-])c3)cc2nc1C,11.4%
11,Cc1cc(C)cc(-n2c(C)cc(C=C3SC(=S)NC3=O)c2C)c1,-9%
12,O=C(Nc1ccc(Cl)cc1)c1ccc2c(c1)OCCO2,7.4%
13,O=[N+]([O-])c1ccc(S(=O)(=O)N(CCO)C2CCCCC2)cc1,-7.1%
14,COc1ccc(/C=N/S(=O)(=O)c2ccc(C)cc2)c(OC)c1,-1.1%
15,Cc1cc2ncn(C(=O)c3c(-c4c(Cl)cccc4Cl)noc3C)c2cc1C,13.8%
16,O=C1NC(=S)N(c2ccccc2)C(=O)/C1=C/c1ccc(-c2ccc(Cl)c(C(=O)O)c2)o1,2.4%
17,Cc1cc(C)c(S(=O)(=O)Nc2ccc3oc4c(c3c2)C(=O)CC(C)(C)C4)c(C)c1,2%
18,O=[N+]([O-])c1ccc(CNC2C3CC4CC(C3)CC2C4)cc1 (stereo not given),2.1%
19,O=C1NC(=O)/C(=C\c2ccccc2Cl)S1,-4.1%
20,CCOc1ccc(NC2CC(=O)N(c3ccccc3F)C2=O)cc1 (stereo not given),-4.9%
21,Cc1cc(Cl)ccc1OCC(=O)Nc1ccc(S(N)(=O)=O)cc1,1.2%
22,CCOC(=O)C1C(=O)CC(O)(c2cccc(Br)c2)CC1C=C(Cl)Cl (stereo not given),18.4%

row,Structure (SMILES),displacement
1,O=C(N/C(=C/c1cccnc1)c1nc2ccccc2[nH]1)c1cccc(Br)c1,-2.3%
2,CC1=NN(C(=O)Cc2ccccc2)C(O)(c2ccc(Cl)cc2)C1 (stereo not given),-6.1%
3,CC1=C(C(=O)Nc2ccccc2)C(c2ccc(C)o2)NC(=S)N1 (stereo not given),-2.7%
4,O=[N+]([O-])c1ccc2nc(N3CCN(Cc4ccc5c(c4)OCO5)CC3)sc2c1,-19.7%
5,O=C(Nc1cccc(C(F)(F)F)c1)c1cccc(N2C(=O)c3ccccc3C2=O)c1,-5.6%
6,CC(=O)CC(c1ccccc1)S(=O)(=O)c1cccc(C)c1 (stereo not given),5.2%
7,O=C1C2C(C(=O)N1c1ccc(Br)cc1)C2(c1ccccc1)c1ccccc1 (stereo not given),6.8%
8,CCC(C(=O)O)P(=O)(c1ccccc1)c1ccccc1 (stereo not given),11.9%
9,CCN(CC)CCCOc1cccc(OC)c1,8.5%
10,COc1ccc(-n2c(SCC(=O)c3ccccc3)nc(O)c(Cc3ccccc3)c2=O)cc1,4.9%
11,CCOC(=O)Nc1ccc2c(c1)N(C(=O)OCC)c1ccccc1CC2,-8.1%
12,O=C(Nc1ccncc1)c1cc(-c2ccccc2)nc2ccccc12,21.1%
13,CCOC(=O)c1c(C)[nH]c2ccc(OC(C)=O)cc12,5.3%
14,O=C(Nc1ccc2oc(-c3cccc(Cl)c3Cl)nc2c1)c1ccccc1Cl,-0.3%
15,CCC(=O)Nc1ccc(-c2nc3ccccc3s2)cc1,17.5%
16,COc1ccc(C(=O)Nc2ccccc2)cc1NC(=O)c1c(OC)cccc1OC,11.8%
17,COc1ccc(CCNC(=O)C2CC2(c2ccccc2)c2ccccc2)cc1OC (stereo not given),-7%
18,CCOC(=O)c1c(NC(=O)c2ccc(C)c(C)c2)sc(C(C)=O)c1C,-4.7%
19,CC(C)c1ccc(N2C(=O)/C(=C/c3cc(Cl)c(O)c(Cl)c3)C(=O)NC2=S)cc1,-6.6%
20,CC(=O)c1ccc(NC(=O)C2CC(=O)N(c3cc(C)ccc3C)C2)cc1 (stereo not given),11.9%
21,COC(=O)c1sc(NC(=O)CC(C)C)c(C(=O)OC)c1C,-6.2%
22,O=C(O)c1cc(-c2cccnc2)nc2ccc(Br)cc12,9.8%

row,Structure (SMILES),displacement
1,CCn1c2ccccc2c2cc(CN3CCN(Cc4cccc([N+](=O)[O-])c4)CC3)ccc21,-11.3%
2,CCOc1cc(/C=C2/SC(=S)N(C)C2=O)ccc1OC(=O)c1ccc(C)cc1,62.3%
3,Cc1cc(NC(=O)c2cccc(Br)c2)ccc1-c1cc2ccccc2oc1=O,6.5%
4,NS(=O)(=O)c1ccc(CCNC(=O)NC2CCCCC2)cc1,3.6%
5,Cc1ccc(S(=O)(=O)N2CCCC2C(=O)N2CCCCC2)cc1 (stereo not given),-3.9%
6,Cc1cc(C)cc(CSCC(=O)O)c1,10.2%
7,O=C(O)c1ccc(/C=N/N2CCN(Cc3cccc4ccccc34)CC2)cc1,-5.8%
8,Cc1ccc(C)c(N2C(=O)C3C(C2=O)N2CCCN2C3c2ccccc2)c1 (stereo not given),1.4%
9,O=C1/C(=C\c2cccc(C(F)(F)F)c2)SC(=S)N1Cc1ccccc1,11%
10,Cc1ccc(OC(=O)COc2ccc(Cl)cc2Cl)cc1,-1.2%
11,O=C(O)c1ccc(N=Cc2ccc([N+](=O)[O-])s2)cc1,1.1%
12,O=[N+]([O-])c1ccc2c(c1)c(-c1ccccc1)c(CO)n2Cc1ccccc1,33.3%
13,O=C(Nc1ccc(-c2nc3ccccc3[nH]2)cc1)c1ccccc1,0.3%
14,Cc1ccc(C(=O)O)cc1NC(=O)C1CCCCC1C(=O)O (stereo not given),-9.6%
15,CCOc1ccc(CN2CCN(C(=O)c3ccccc3OC)CC2)cc1,-21.7%
16,C(=N\N1CCN(c2ccccn2)CC1)/c1ccco1,-0.3%
17,COc1ccccc1/C=N/N1C(=O)c2cccc3cccc(c23)C1=O,6.2%
18,CCOC(=O)C1=C(C)N=C2SCC(=O)N2C1c1ccc(Cl)cc1 (stereo not given),7.4%
19,CSC1=C(C#N)C(c2ccc(Br)cc2)CC(=O)N1 (stereo not given),-2.7%
20,COc1ccc(CC(=O)Nc2ccc(Cl)cc2C)cc1OC,-4.4%
21,COc1ccc(N2C(=O)c3ccccc3NC2c2ccc(OC)c(COc3ccc(NC(C)=O)cc3)c2)cc1 (stereo not given),10.9%
22,COC(=O)C1=C(O)/C(=C/c2cc(C)n(-c3ccc(Cl)cc3Cl)c2C)N=C1C,13.1%
